# Experimental data as given in PubChem BioAssay AID651597 (National Center for Advancing Translational Sciences (NCATS), 2012).
# About 390 (35%) of roughly 1,100 compounds were called active. This list was built around the results that the source calls inconclusive (neither active nor inactive); the mix of calls is not that of the screen. Calls follow the shape of the dose curve; as a rule, active = well fitted inhibition curve with a large enough effect; inconclusive = small, poorly fitted or top-dose-only effect; inactive = flat fitted curve, though single readings scatter. Potencies of inconclusive entries are doubtful fits and often do not repeat.
# Biological target: Luciferin 4-monooxygenase (Photinus pyralis) (UniProt P08659)
# Test: qHTS of Nrf2 Activators: Hit Validation in Secondary FLuc Assay; also: nearly all actives have a fitted effect of over 65% in size
# Conditions: firefly luciferase inhibition counter-screen, luminescence; series mostly up to 57.5 µM
# Procedure, shortened: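 Counter-screen on purified firefly luciferase with ATP and D-luciferin at Km concentrations; compounds flagged if they inhibit the enzyme, indicating possible reporter stabilization rather than ARE activation.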
# Potency is read from the fitted curve at half-maximal effect; tags tell the direction and shape of the fitted curve.
row,Compound,Potency
1,COC(=O)C1=C(C)N(c2ccc(Br)cc2)C(=O)/C1=C\c1ccco1,inactive
2,O=C(/C=C/c1ccccc1[N+](=O)[O-])N1CCc2ccccc2C1,"inconclusive: 23.9 µM [inhibitor, single point]"
3,CS(=O)(=O)c1ccc2nc(NC(=O)CCS(=O)(=O)c3ccccc3)sc2c1,"inconclusive: 23.9 µM [inhibitor, single point]"
4,O=C1C(=Cc2ccco2)CCCC1=Cc1ccco1,active: 2.69 µM
5,CCc1cccc(NC(=O)Cn2c(=O)n3nc(-c4cccc(F)c4)nc3c3ccccc32)c1,"inconclusive: 37.9 µM [inhibitor, single point]"
6,O=C(/C=C/c1ccco1)Nc1cccc2cccnc12,active: 4.78 µM
7,c1coc(-c2cnc3ccccc3n2)c1,active: 2.69 µM
8,Cn1ccsc1=NC(=O)c1ccc([N+](=O)[O-])o1,inactive
9,NS(=O)(=O)c1ccc(Sc2nc3ccccc3s2)c([N+](=O)[O-])c1,"inconclusive: 37.9 µM [inhibitor, single point]"
10,CCOC(=O)c1sc(NC(=O)c2ccco2)nc1C,"inconclusive: 2.39 µM [inhibitor, full curve]"
11,O=c1nc2c(O)cccn2c2c1c(=O)[nH]c1ccccc12,"inconclusive: 8.49 µM [inhibitor, partial curve]"
12,Cc1cc(-c2sccc2Br)nc(-n2cccc2)n1,"inconclusive: 13.5 µM [inhibitor, partial curve]"
13,COc1ccc(C=O)cc1OS(=O)(=O)c1ccccc1[N+](=O)[O-],"inconclusive: 37.9 µM [inhibitor, single point]"
14,Cc1ccc([N+](=O)[O-])c(OCc2ncc(Cl)n2C)c1,"inconclusive: 15.1 µM [inhibitor, partial curve]"
15,O=C(CSc1ccc(-c2ccco2)nn1)N1CCCCC1,"inconclusive: 21.3 µM [inhibitor, single point]"
16,CCOC(=O)C(=Cc1ccccc1OC)C(=O)OCC,"inconclusive: 37.9 µM [inhibitor, single point]"
17,C/C(=N\NC(=O)CSc1nc2ccccc2s1)c1ccco1,"inconclusive: 37.9 µM [inhibitor, single point]"
18,O=C(OCC(=O)N1CCCC1)c1cc([N+](=O)[O-])ccc1Cl,inactive
19,N#C/C(=C\c1cccs1)Sc1nc2ccccc2s1,"inconclusive: 10.7 µM [inhibitor, partial curve]"
20,COC(=O)c1ccc2nc(-c3ccc(F)cc3)c(CC3CCCCC3)n2c1,"inconclusive: 12 µM [inhibitor, partial curve]"
